Where a chain is given by its changes, count along the chain named. Numbers in names are those of the source. Read-outs that look alike come from different tables or passages of the source. Blank lines part the entries; values can stand above or below the binder they belong to.
Assays:
[1] = biological target: T1, Human MUC17 ECD4131-his (His-tagged human MUC17 protein extracellular domain fusion protein) (human, UniProt Q685J3 fragment); assay: SPR (Biacore 8K), antibody captured on Protein A
T1 construct: a truncation of the extracellular domain; also called human MUC17-his protein; human MUC17-His
Method: (§1) The strength of antibody-antigen binding was assayed with a BIAcore 8K instrument using an Protein A capture method. First, Protein A was immobilized onto a CM4 chip (purchased from GE, BR-1005-34) using an amino coupling method. According to the instruction of the Amine Coupling Kit (purchased from GE, BR100633), NHS and EDC were mixed with HBS-EP+ pH 7.4 as a mobile phase to activate the chip for about 600 s; the Protein A was diluted to 50 µg/mL with 10 mM sodium acetate (pH 4.5) and injected for 600 s, and finally, the remaining activated sites were blocked with ethanolamine. Then, the affinity of the antibody for the antigen was assayed using a multi-cycle kinetic method; in each cycle, first, the antibody to be tested was captured using the Protein A chip, and then a single concentration of antigen protein was injected. The association and dissociation processes of the antibody with the antigen protein were recorded, and finally, the chip was regenerated using Glycine pH 1.5, wherein the mobile phase was HBS-EP+ (10 mM HEPES, 150 mM NaCl, 3 mM EDTA, 0.05% surfactant P20), the flow rate was […], the regeneration time was 30 s, and the assay temperature was 25° C. Finally, according to a 1:1 binding model, the data were analyzed, and the antibody-antigen binding kinetics parameters, including the association rate constant Ka, the dissociation rate constant Kd, the equilibrium dissociation constant KD, and the maximum binding signal Rmax, were fitted. The association rate (Ka), dissociation rate (Kd), and binding affinity (KD) of the recombinant antibodies Lab315-huFc, Lab316-huFc, Lab320-huFc, Lab331-huFc, and Lab332-huFc with the human MUC17 protein are shown in Table 5.

[2] = biological target: T1, Human MUC17 ECD4131-his (His-tagged …); assay: ELISA on coated human MUC17 ECD4131-his, OD450
Method: (§2) A human MUC17-his protein was diluted with PBS to a final concentration of […] and then added to a 96-well ELISA plate at 50 µL/well. The plate was incubated at 4° C. overnight. The next day, the plate was washed 2 times with PBST, and a blocking buffer [PBS+2% (w/w) BSA] was added for blocking at room temperature for 2 h. The blocking buffer was discarded, and the recombinant antibody and positive and negative control antibody with a starting concentration of 100 nM serially diluted by 3 folds were added at 50 μL/well. After incubation at 37° C. for 1 h, the plate was washed 3 times with PBST. A horseradish peroxidase (HRP)-labeled secondary antibody (purchased from Merck, Cat. No. AP113P) was added for incubation at 37° C. for 1 h, and the plate was washed 5 times with PBST. A TMB substrate was added at 50 μL/well for incubation at room temperature for 10 min, and then a stop solution (1.0 M HCl) was added at 50 µL/well. The OD₄₅₀ nm values were read by an ELISA plate reader (Multimode Plate Reader, EnSight, purchased from Perkin Elmer).

[3] = biological target: T1, Human MUC17 ECD4131-his (His-tagged …); assay: SPR (Biacore 8K), antibody captured on Protein A; remark: listed apart in the source
Method: as §1
After the finally obtained various humanized antibodies were expressed and purified, the affinity of the humanized antibodies for the human MUC17 protein was assayed according to the method in Example 3.6.

[4] = biological target: T2, Cyno MUC17 ECD3577-his (His-tagged cynomolgus monkey MUC17 protein extracellular domain fusion protein) (cynomolgus monkey); assay: ELISA on coated monkey MUC17 ECD3577-His, OD450
T2 construct: also called monkey MUC17-his protein; monkey MUC17 ECD3577-His
T2 chain: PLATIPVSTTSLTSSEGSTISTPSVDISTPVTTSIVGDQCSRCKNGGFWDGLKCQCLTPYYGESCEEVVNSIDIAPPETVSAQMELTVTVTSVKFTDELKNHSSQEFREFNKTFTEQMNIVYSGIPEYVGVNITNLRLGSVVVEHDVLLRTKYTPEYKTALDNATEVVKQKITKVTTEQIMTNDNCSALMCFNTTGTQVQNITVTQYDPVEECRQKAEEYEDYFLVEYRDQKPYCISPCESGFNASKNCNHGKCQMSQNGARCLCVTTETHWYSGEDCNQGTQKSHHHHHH
Method: as §2
The monkey MUC17-his protein was subjected to ELISA and data analysis according to the method described in Example 3.2. The recombinant antibodies Lab315-huFc, Lab316-huFc, Lab320-huFc, Lab331-huFc, and Lab332-huFc have a relatively good binding activity with the monkey MUC17-his protein.

[5] = biological target: T3, monkey MUC17 fragment on FlpinCHO-Cyno(3597-3964)-D2 cells (monkey); assay: FACS on FlpinCHO-Cyno(3597-3964)-D2 cells, MFI
T3 chain: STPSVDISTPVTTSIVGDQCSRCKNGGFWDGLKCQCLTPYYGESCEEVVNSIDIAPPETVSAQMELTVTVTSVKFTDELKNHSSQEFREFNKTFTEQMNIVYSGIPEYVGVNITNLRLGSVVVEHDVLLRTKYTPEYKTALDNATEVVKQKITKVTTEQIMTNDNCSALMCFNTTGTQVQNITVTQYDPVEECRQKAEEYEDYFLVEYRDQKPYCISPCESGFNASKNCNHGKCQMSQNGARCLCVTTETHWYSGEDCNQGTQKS

[6] = biological target: T3, monkey MUC17 fragment on …; assay: FACS on FlpinCHO-Cyno(3597-3964)-D2 cells, MFI
[7] = biological target: T4, human MUC17 on NUGC4 endogenous tumor cells (human, UniProt Q685J3); assay: FACS on NUGC4 cells, MFI
Method: (§3) Then a complete medium was added to stop the digestion, and the cells were blown into a single cell suspension. After counting, the cells were centrifuged, and the cell pellet was resuspended to 2×10⁶ cells/mL in an FACS buffer (PBS+2% fetal bovine serum), and added to a 96-well FACS reaction plate at 100 µL/well. The plate was centrifuged, and the supernatant was discarded. An antibody sample to be tested (diluted in a 3-fold gradient from a starting concentration of 100 nM) was added at 50 µL/well and uniformly mixed with the cells, and the mixture was incubated at 4° C. for 1 h. […] The results were tested and analyzed by FACS (FACS Canto™, purchased from BD) after the plate was centrifuged and washed 3 times with a PBS buffer and resuspended with 100 μL of PBS. Data analysis was performed by software (FlowJo) to obtain the mean fluorescence intensity (MFI) of the cells. Then, analysis was performed by software (GraphPad Prism8), data were fitted, and EC50 values were calculated. As shown in FIGS. 3A-3B, the recombinant antibodies Lab315-huFc, Lab316-huFc, Lab320-huFc, Lab331-huFc, and Lab332-huFc are all capable of binding specifically to NUGC-4 cells.
The preparation of the assay cells and the antibodies to be tested and the assay were performed with reference to Example 3.4. The humanized antibodies all have a relatively good binding activity with endogenous cells NUGC4, maintaining the binding ability of the corresponding recombinant antibodies before humanization.

[8] = biological target: T4, human MUC17 on NUGC4 endogenous tumor …; assay: FACS on NUGC4 cells, MFI; remark: listed apart in the source
Method: as §3

[9] = biological target: T2, Cyno MUC17 ECD3577-his (His-tagged …); assay: ELISA on coated monkey MUC17 ECD3577-His, OD450
Method: To assay the binding activity of the humanized antibodies with the monkey MUC17-his protein, the monkey MUC17-his protein was diluted with PBS to a final concentration of […] and subjected to ELISA assay and data analysis according to the method described in Example 3.3. The humanized antibodies SCR-7724, SCR-7782, SCR-7783, SCR-7784, and SCR-7785 have cross-binding activity with the monkey MUC17 protein, maintaining the binding ability of the recombinant antibody.

[10] = biological target: T1, Human MUC17 ECD4131-his (His-tagged …); assay: ELISA on coated human MUC17 ECD4131-his, OD450; remark: listed apart in the source
Method: as §2

- Kd [1]: 0.129 nM
- koff [1]: 3.43e-05 s⁻¹
- kon [1]: 265000 M⁻¹ s⁻¹
- EC50 (read off the curve) [2]: ~0.02 nM
- Kd [3]: 0.12 nM
- koff [3]: 3.28e-05 s⁻¹
- kon [3]: 273000 M⁻¹ s⁻¹
- EC50 (read off the curve) [4]: ~0.01 nM
B1: Lab316-huFc (Fc fusion)
chain: DVQLQASGGGSVQAGGSLRLSCAASDNTFSRGSMSWFRQAPGKEREGVAIISSDGWTGYADSVKGRFTISQDNAKNTLYLQMIGLKPDDTAMYYCAASFLVLRALNPKAWHYWGQGTQVTVSS[omitted - human IgG1 Fc with C220S (EU numbers)]
notes: Nanobody expressed in human Fc fusion form

- EC50 (read off the curve) [5]: ~2 nM
- EC50 (read off the curve) [6]: ~2 nM
- EC50 (read off the curve) [7]: ~0.1 nM
- Kd [1]: 0.383 nM
- koff [1]: 6.47e-05 s⁻¹
- kon [1]: 169000 M⁻¹ s⁻¹
- EC50 (read off the curve) [8]: ~0.2 nM
- EC50 (read off the curve) [2]: ~0.04 nM
- Kd [3]: 0.123 nM
- koff [3]: 2.9e-05 s⁻¹
- kon [3]: 237000 M⁻¹ s⁻¹
B2: Lab315-huFc (Fc fusion)
chain: DVQLQASGGGAVQAGGSLRLSCAASGDITRRCMGWFRQAPGKEREGVAGISEDGITIYADSVKGRFTISKDNAKNSLYLQMNSLAPEDTANYSCAASILNRVGCRQLSYEYIYRGQGTQVTVSS[omitted - human IgG1 Fc with C220S (EU numbers)]
notes: as for B1

- EC50 (read off the curve) [6]: ~3 nM
- EC50 (read off the curve) [7]: ~0.1 nM
- Kd [3]: 0.697 nM
- koff [3]: 7.63e-05 s⁻¹
- kon [3]: 109000 M⁻¹ s⁻¹
B3: SCR-7724-001-H11-hFc (Fc fusion)
chain: B2 chain with D1E, Q5V, A6E, A11L, A14P, G16R, I57G, A85R, P86A, N91L
notes: VHH-huFc (C220S) order with human hinge and Fc; also called SCR-7724 humanized antibody

- EC50 (read off the curve) [6]: ~2 nM
- EC50 (read off the curve) [7]: ~0.1 nM
- Kd [3]: 23.5 nM
- koff [3]: 0.0017 s⁻¹
- kon [3]: 72400 M⁻¹ s⁻¹
B4: SCR-7724-001-H8-hFc (Fc fusion)
chain: EVQLVESGGGLVQPGRSLRLSCAASGDITRRCMGWFRQAPGKEREGVAGISEDGITGYADSVKGRFTISRDNAKNSLYLQMNSLRAEDTALYYCAASILNRVGCRQLSYEYIYRGQGTMVTVSS[omitted - human IgG1 Fc with C220S (EU numbers)]
notes: as for B3

- EC50 (read off the curve) [9]: ~0.05 nM
- EC50 (read off the curve) [10]: ~0.08 nM
- Kd [1]: 0.0958 nM
- koff [1]: 7.67e-05 s⁻¹
- kon [1]: 800000 M⁻¹ s⁻¹
- EC50 (read off the curve) [2]: ~0.08 nM
- Kd [3]: 0.088 nM
- koff [3]: 6.39e-05 s⁻¹
- kon [3]: 726000 M⁻¹ s⁻¹
- EC50 (read off the curve) [4]: ~0.05 nM
B5: Lab331-huFc (Fc fusion)
chain: DVQLQASGGGSVQAGGSLRLSCAASGYTSNRYSMAWFRQAPGKEREVVAFIWTDGGRTYYADSVKGRLTISHDNAKNTLYLQMDSLKPEDTAMYYCAASSLLLQTINPRAWPYWGQGTQVTVSS[omitted - human IgG1 Fc with C220S (EU numbers)]
notes: as for B1

- Kd [1]: 0.239 nM
- koff [1]: 0.000118 s⁻¹
- kon [1]: 491000 M⁻¹ s⁻¹
- EC50 (read off the curve) [2]: ~0.06 nM
- Kd [3]: 0.236 nM
- koff [3]: 0.000119 s⁻¹
- kon [3]: 504000 M⁻¹ s⁻¹
- EC50 (read off the curve) [4]: ~0.06 nM
B6: Lab332-huFc (Fc fusion)
chain: EVQLQASGGGSVQAGGSLRVSCAASGDTFSRGSWGWFRQRPGKEREAVALISSDGWTFYADSVKGRFTISQDNTKNTLYLQMISLRPEDTAMYYCAASVLVLRTLNPKAWHHWGQGTQVTVSS[omitted - human IgG1 Fc with C220S (EU numbers)]
notes: as for B1

- Kd [1]: 0.556 nM
- koff [1]: 0.000106 s⁻¹
- kon [1]: 190000 M⁻¹ s⁻¹
- EC50 (read off the curve) [2]: ~0.05 nM
- Kd [3]: 0.527 nM
- koff [3]: 0.000103 s⁻¹
- kon [3]: 196000 M⁻¹ s⁻¹
- EC50 (read off the curve) [4]: ~0.06 nM
B7: Lab320-huFc (Fc fusion)
chain: DVQLQASGGGSVQSGGSLRLSCAASGFPSSRGTMAWFRQAPGREREGVAFINSDGRTSYAESVKGRFTISRDNALSTLWLQMNSLKPEDTGMYYCAASLLYLMTVNAAAYPYWGQGTQVTVSS[omitted - human IgG1 Fc with C220S (EU numbers)]
notes: as for B1

Source: patent publication US20250297030A1 (SHANDONG SIMCERE BIOPHARMACEUTICAL, published 2025)
